Laboratory results as given in the supplement of paper PMC3334620.
Whole data set: some 33,000 sequences, median “E-score (-0.5 to 0.5)” near -0.011, cut for the highest 2% near 0.28. This is one part of the list.

target: T1, Gcr1 (UniProt P07261); test: PBM E-score (8-mer binding enrichment) (E-score (-0.5 to 0.5)); higher = stronger / more preferred TF binding; most listed sequences are background and not binding sites; conditions: protein concentration: 100 nM; construct: GST-full length
T1 sequence: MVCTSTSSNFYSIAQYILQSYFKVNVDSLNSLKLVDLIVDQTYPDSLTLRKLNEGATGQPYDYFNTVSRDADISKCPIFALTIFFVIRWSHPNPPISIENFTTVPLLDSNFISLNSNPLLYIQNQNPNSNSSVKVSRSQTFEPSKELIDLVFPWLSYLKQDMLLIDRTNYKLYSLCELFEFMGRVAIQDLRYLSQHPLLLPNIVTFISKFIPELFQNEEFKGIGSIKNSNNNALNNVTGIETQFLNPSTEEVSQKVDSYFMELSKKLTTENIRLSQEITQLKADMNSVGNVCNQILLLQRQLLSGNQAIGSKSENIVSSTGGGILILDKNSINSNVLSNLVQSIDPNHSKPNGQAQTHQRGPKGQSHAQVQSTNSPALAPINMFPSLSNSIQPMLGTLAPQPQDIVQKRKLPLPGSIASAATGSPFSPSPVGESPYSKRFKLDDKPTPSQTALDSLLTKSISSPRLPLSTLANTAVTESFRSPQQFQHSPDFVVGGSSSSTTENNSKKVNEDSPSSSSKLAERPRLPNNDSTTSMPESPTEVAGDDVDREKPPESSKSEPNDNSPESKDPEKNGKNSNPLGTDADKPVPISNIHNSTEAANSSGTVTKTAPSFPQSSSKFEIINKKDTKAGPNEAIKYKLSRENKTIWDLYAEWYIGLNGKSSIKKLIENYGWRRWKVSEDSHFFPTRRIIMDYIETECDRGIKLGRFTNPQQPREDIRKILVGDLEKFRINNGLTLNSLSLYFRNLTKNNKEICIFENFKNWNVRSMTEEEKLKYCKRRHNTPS
Experimental: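 Universal 'all 10-mer' protein binding microarrays (Agilent AMADID 015681) probed with GST-tagged S. cerevisiae TFs (full-length or DBD) made by in vitro transcription/translation (PURExpress), about 100-200 nM. Bound TF was detected with fluorescent anti-GST. Each ungapped 8-mer (which stands for itself and its reverse complement) is scored by the PBM enrichment score (E-score), a modified Wilcoxon-Mann-Whitney statistic from -0.5 to +0.5, computed with the Universal PBM Analysis Suite. Scale: above 0.35 generally sequence-specific binding.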

Sequence	PBM E-score
GCGTAAGC	-0.0756
AAACAGGT	0.271
CAATTAAG	0.101
AGCTGTTC	-0.115
CTGTGGCC	-0.0927
CACCCATC	0.0249
AAAGCAAA	0.0399
GACCGTGA	-0.176
CTATAAAG	0.0437
GATTTGCC	-0.0236
AGCTACCA	0.269
AATCTCCC	-0.0475
AAGTTCAA	0.0288
TCAACTCA	0.0773
GAGCCAAA	0.0506
AATCAGGT	0.0435
ATGCAAGG	-0.0906
AGTTTGGA	0.117
AAAATATA	0.156
AAACCTAG	0.0461
GCAGCCCA	0.199
GCCGCACA	-0.124
ATATAACC	-0.147
CCCTTTGA	-0.151
GGAAGAAA	-0.155

Sequence	PBM E-score
AAGAAGGG	-0.0458
TAGGGACA	0.0118
GCCAGGAC	-0.212
CACAACCC	-0.106
GAAGAGAC	0.0695
AACAGCTA	-0.13
CCGCCCTA	-0.0561
AATACGAA	0.227
CATTTAGC	-0.0426
GTAGAAGA	0.145
AGCGTGCG	-0.0301
CCATATAA	0.126
GGAAGACC	-0.0348
AACTGATT	-0.061
AGCCAACT	-0.011
GAGCGTAA	-0.127
ACGCCGAT	0.0467
ATTAGAAA	0.149
CACCGGGA	0.0902
AGTATACT	-0.141
CACATAAG	-0.00832
GCAAAGGC	-0.281
CGCTGCGA	0.0566
CTTTCCCA	-0.15
ACGCTCTA	-0.0794

Sequence	PBM E-score
AAAATGAT	0.183
TAATGATA	0.17
GGTGCCAC	0.225
AAAGTTGG	0.113
CCGTTACG	-0.0567
GACGAGTC	-0.131
AGCGTAAC	-0.0791
ACGTAACG	-0.151
CTAAGTAA	-0.0883
CCTGGCCC	-0.204
CTCAATCA	0.119
AATCTGCT	-0.133
AGGTTGCC	0.28
AGGCACCT	0.16
CTCCGTCA	-0.278
AGTGGGTC	0.222
AGCGCAAG	-0.0482
GTAAATGA	-0.0267
AAAGCTCG	-0.137
GGTCTACA	-0.0646
ATCGGTCG	-0.0293
ACTAATAT	0.149
AACGCAAC	0.00489
GATGTAGA	0.087
ATTCGGAC	-0.0393

Sequence	PBM E-score
GGCACCAA	0.335
GGTCACTA	-0.126
GTTGGTGA	-0.0415
ATTTGAGG	0.0294
CATATGGC	0.00958
ACATGAAA	-0.18
CAGATGGC	-0.0396
CGGGACAA	-0.118
AATTACAT	0.0891
GGCTCCGA	0.136
TGCGACCA	0.166
AAATGTGC	0.00773
AATTCAGT	0.241
AATACGCT	0.0181
AAGAACCA	0.13
CAGGGAAC	0.00984
AGCCAAAG	-0.152
AATTAAGG	0.118
CATTCGAG	-0.284
TCTCGGAA	0.0498
CGTGCAGA	-0.00419
CCGTGTGA	-0.063
CAACTTGA	0.0873
ATGGGGGA	-0.186
AAAGAAGT	0.0878

Sequence	PBM E-score
ACTGAGCA	0.131
AGATGGAC	0.224
GTCGATAA	-0.00243
ATTCGGTA	0.0533
ACGCACGG	0.00066
CAGGTGCC	0.25
GACTCATC	-0.124
ACAGGAAG	0.455
GAAGAACA	-0.136
AAACCTAA	0.0813
ACACAGCT	-0.243
TAGGTGCA	-0.174
CCAACAAA	-0.0204
GAAGATTA	-0.0115
AACGAATT	0.0678
TCATCACA	-0.0733
CCAGAGAC	-0.0679
AGTTGACC	-0.106
GATTTCTA	-0.00526
CGACGGTA	-0.073
CATTGCAG	-0.153
GTCAAGGA	0.0238
ATAGCTAG	-0.0392
CGAGAGGA	-0.113
GCTAACCC	-0.243

Sequence	PBM E-score
CCCAGCAA	0.174
CGCAACCA	0.147
CAACGCTA	0.0062
CTTTGGGC	0.00906
AATGCGCT	0.195
ACGAATGG	0.111
CGCGGCCG	-0.197
GTGCTTCA	-0.102
ACAGTTCC	0.0983
AGTATAGA	-0.123
AATGTACG	-0.105
CCTTCTAC	0.0671
AAGACAAT	-0.0611
CGGCGGAC	-0.0471
CGCCAGCC	-0.117
ACACTGGC	0.16
GGGAAGCA	0.0216
CTTCTTGC	0.0175
ACGCCCCA	0.0841
TACAGAGA	-0.0176
CGTTCCAG	-0.008
ACAATAAG	0.117
CAAAAAAC	0.191
GACAAACC	-0.0625
ATCTCGGC	-0.0184

Sequence	PBM E-score
GCCCATTA	0.00809
AATGCCCA	-0.0413
ACTTGGGG	0.0493
GCAACTGC	0.0273
CCAGAGAA	0.128
AGCCGGTC	0.0351
CCTCTCCA	-0.11
CAGAATGC	0.0822
TCACACCA	-0.135
GACGACTA	-0.195
ACACTATC	-0.0774
GCTGTTTA	0.0955
AAATTCCG	0.108
TGCCGGAA	0.145
GATCCACA	0.18
TAAACTAA	0.0517
CGAAGAAA	-0.0515
AGTGATCC	-0.0127
AAATGTAC	-0.0111
ACGAGTCA	-0.18
CATAATTC	0.0959
ACGGGTGA	-0.212
CGTCTTCA	0.143
GCCCACGC	-0.252
CCGAAACG	0.012

Sequence	PBM E-score
CCAAGAGC	0.0143
ATAGGCTC	0.0169
GTCTTAAC	-0.00039
CAATTTAC	0.0643
CCCCAGTA	0.0644
CCGGGAGA	0.0477
CCGAGCAA	-0.208
CAGATAGA	0.0277
CCGCACCA	0.0661
CCGTGGTC	-0.067
CGAGAACA	-0.0497
GATATGCC	-0.171
CGTAGTGC	-0.154
ACTAGATG	0.173
CGGTGTCA	-0.102
CTTATAAG	-0.0238
GAATGAAA	0.167
TATAAGAA	0.261
CGGGTGAG	-0.163
ATGCTCTA	-0.0783
AATTTGTC	-0.00767
CTTTTCGC	0.0761
TCAAAACA	0.0365
TCCGACAA	-0.0648
CCTGCCAC	0.0404

Sequence	PBM E-score
ATCCGCAA	0.12
AACGTAGA	-0.106
CTCTTGCC	-0.053
AGCTAAGC	-0.17
CAACTCCG	0.0619
CTCCGACC	-0.127
AACGGGTG	0.0615
ACCCGCTG	-0.068
CCCCGGCG	-0.0578
AACACTCC	-0.0243
AAAGCTCC	-0.0149
GCTTAATA	0.101
ATGCCGTC	-0.126
ATATTTCG	0.216
AAGTATGC	-0.0568
GCTTACCC	-0.205
AAACGGGC	0.00768
TCACTCAA	-0.119
GATGTAAC	-0.0496
